Results taken from PubChem BioAssay AID504332 (National Center for Advancing Translational Sciences (NCATS), 2011).
Screen size: about 350,000 compounds; about 31,000 (8.9%) were called active. This list was built around the results that the source calls inconclusive (neither active nor inactive); the mix of calls is not that of the screen. Calls follow the shape of the dose curve; as a rule, active = well fitted inhibition curve with a large enough effect; inconclusive = small, poorly fitted or top-dose-only effect; inactive = no such curve, though single readings can be large or run the other way. A potency beside an inconclusive call is a rough fit, not a confirmed value.

Each molecule was assayed against Histone-lysine N-methyltransferase EHMT2 (Homo sapiens) (UniProt Q96KQ7) (assay: qHTS Assay for Inhibitors of Histone Lysine Methyltransferase G9a). Details: G9a H3K9 monomethylation, AlphaScreen, 2 h; activity, negative = inhibition: at 59 µM (top of the series) unless noted.
UniProt Q96KQ7, sequence (Q96KQ7 whole entry, looked up): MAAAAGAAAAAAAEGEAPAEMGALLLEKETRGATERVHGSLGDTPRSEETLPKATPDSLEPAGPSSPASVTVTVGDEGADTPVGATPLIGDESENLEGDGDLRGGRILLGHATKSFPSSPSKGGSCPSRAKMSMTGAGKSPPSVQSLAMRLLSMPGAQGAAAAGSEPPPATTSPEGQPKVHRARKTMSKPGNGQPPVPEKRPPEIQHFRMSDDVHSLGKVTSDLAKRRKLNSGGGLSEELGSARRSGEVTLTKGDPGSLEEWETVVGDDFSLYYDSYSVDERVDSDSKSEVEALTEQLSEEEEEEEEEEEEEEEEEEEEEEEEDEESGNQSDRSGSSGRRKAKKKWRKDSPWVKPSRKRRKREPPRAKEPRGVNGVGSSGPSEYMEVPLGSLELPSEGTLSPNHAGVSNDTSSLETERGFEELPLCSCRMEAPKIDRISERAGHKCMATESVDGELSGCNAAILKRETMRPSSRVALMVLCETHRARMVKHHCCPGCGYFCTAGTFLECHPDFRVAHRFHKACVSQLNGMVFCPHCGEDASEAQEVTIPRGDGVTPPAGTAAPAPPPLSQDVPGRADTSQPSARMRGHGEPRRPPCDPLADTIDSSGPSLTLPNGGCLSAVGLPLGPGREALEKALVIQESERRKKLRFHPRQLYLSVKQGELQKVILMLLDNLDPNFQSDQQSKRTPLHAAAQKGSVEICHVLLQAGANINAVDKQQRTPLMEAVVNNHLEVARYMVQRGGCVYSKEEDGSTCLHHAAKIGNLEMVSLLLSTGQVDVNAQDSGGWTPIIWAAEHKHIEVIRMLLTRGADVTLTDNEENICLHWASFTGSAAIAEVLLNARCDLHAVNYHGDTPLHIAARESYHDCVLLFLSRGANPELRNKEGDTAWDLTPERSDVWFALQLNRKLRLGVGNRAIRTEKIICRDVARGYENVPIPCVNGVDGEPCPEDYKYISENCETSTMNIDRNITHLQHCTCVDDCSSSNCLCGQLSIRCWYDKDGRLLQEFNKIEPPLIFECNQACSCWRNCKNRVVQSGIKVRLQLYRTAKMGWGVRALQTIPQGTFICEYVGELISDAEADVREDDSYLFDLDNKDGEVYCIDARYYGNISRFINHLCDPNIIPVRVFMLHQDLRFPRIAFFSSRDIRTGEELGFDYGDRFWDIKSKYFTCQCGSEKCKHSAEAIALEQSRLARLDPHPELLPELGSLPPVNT
In short: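 Signal arises when biotinylated H3K9 peptide, once monomethylated, bridges streptavidin donor and antibody-captured acceptor beads. Enzyme at 20 nM was preincubated 15 min with test compounds; peptide 500 nM and SAM 20 uM then reacted for 2 h.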
% is scaled to controls: 0 for no effect and ±100 for the full control effect; potency is read from the fitted curve at half-maximal effect; tags tell the direction and shape of the fitted curve.
Also: nearly all actives have a fitted effect of over 75% in size.

Structure (SMILES)	Potency	activity, negative = inhibition
CNC(=S)N(CCc1c(C)[nH]c2ccc(C)cc12)Cc1cc(OC)c(OC)c(OC)c1	active: 50.1 µM	–
Cc1nc2ccccc2nc1OCc1ccc([N+](=O)[O-])cc1	–	inactive: -29.6% [at 102 µM]
CC1CC(C)CN(CCCNC(=O)CCC(=O)N2CCOc3ccccc32)C1 (stereo unspecified)	–	inactive: 11.6% [at 102 µM]
Cc1oc(-c2ccccc2)cc1C(=O)Nc1cccc(/C=C\C(=O)O)c1	active: 44.7 µM	–
COc1cc(Cl)c(C)cc1NC(=O)CSCC#N	–	inactive: 6.45%
O=C(c1ccc2c(c1)N(Cc1ccc(F)cc1)C(=O)CS2)N1CCOCC1	inconclusive: 4.47 µM [inhibitor, single point]	–
COc1ccc(C2CC3(CC(C)(C)NC(=O)N3)Oc3cc(O)ccc32)cc1 (stereo unspecified)	inconclusive: 70.8 µM [inhibitor, partial curve, poor fit]	–
COc1ccccc1NS(=O)(=O)c1ccc(C(=O)N2CCN(c3ccccc3O)CC2)cc1	active: 44.7 µM	–
Cc1ccc(S(=O)(=O)C(CNC(=O)COc2ccccc2)c2ccco2)cc1 (stereo unspecified)	–	inactive: -2.06%
CC(=O)OCCNc1cc(N2CCN(C)CC2)c2noc3c2c1C(=O)c1ccccc1-3	inconclusive: 35.5 µM [inhibitor, single point]	–
CC1(C)NC(=O)N(CC(=O)O)C1=O	inconclusive: 89.1 µM [inhibitor, single point]	–
O=C(c1cnc2n(c1=O)CCS2)N1CCc2ccccc21	–	inactive: -4.02%
O=S(=O)(Nc1ccncc1Cl)c1cccc(Cl)c1Cl	inconclusive: 89.1 µM [inhibitor, single point]	–
COc1ccccc1Nc1nnc(SC(C)C(=O)NC2CC2)s1 (stereo unspecified)	–	inactive: -13.1% [at 12.7 µM]
Fc1cc(F)c2nc(Nc3nc4c(F)cccc4s3)sc2c1	–	inactive: -39.4%
Fc1ccc(C2C3=C(Nc4ncnn42)c2ccccc2OC3c2ccncc2)cc1 (stereo unspecified)	inconclusive: 79.4 µM [inhibitor, single point]	–
Cc1ccc(NC(=O)CSc2nccn2Cc2ccccc2)cc1C	inconclusive: 8.91 µM [inhibitor, full curve, poor fit]	–
COc1ccc(/C=C2\SC(=O)N(CCNC(=O)Cc3coc4cc(C)ccc34)C2=O)cc1OC	active: 10 µM	–
O=C(CSc1ccccn1)N1CCN(c2ccc(Cl)cc2)CC1	inconclusive: 5.01 µM [inhibitor, single point]	–
COc1ccc(NC(=O)c2cc([N+](=O)[O-])ccc2O)cc1	inconclusive: 44.7 µM [inhibitor, partial curve, poor fit]	–
CC(C)(C)c1ccc(C(=O)NNC(=O)C(=O)N2CCCCC2)cc1	–	inactive: 33.5% [at 0.501 µM]
